The results in this text go back to patent US20040034006A1, “Method of inactivating viral particles in a blood product” (priority 2000, published 2004).

One data set concerns red blood cells (RBCC). The conditions noted are these: 25 uM. The source says: (§1) Similarly, there was no difference during storage of glucose consumption, lactate production, 2,3-DPG content and pH between the control and treated RBCC (data not shown). White blood cells have found to be highly effected by the present photodynamic treatment.
A further data set concerns White blood cells.
Description: as §1

SMILES strings stand for the structures.

As for `C[n+]1ccc(-c2c3nc(c(-c4cc[n+](C)cc4)c4ccc([nH]4)c(-c4cc[n+](C)cc4)c4nc(c(-c5ccccc5)c5ccc2[nH]5)C=C4)C=C3)cc1.[Cl-].[Cl-].[Cl-]` [Sylsens, mono-phenyl-tri-(N-methyl-4-pyridyl)-porphyrin chloride], in the data set with red blood cells (RBCC), the “2,3-DPG content during storage, treated vs control RBCC” value was “no difference”; the “glucose consumption during storage, treated vs control RBCC” value is recorded as “no difference”; the “lactate production during storage, treated vs control RBCC” value is reported as “no difference”; the “pH during storage, treated vs control RBCC” value is recorded as “no difference”. Moreover, in the data set with White blood cells, the “capability of white blood cells to present antigens” value was “adversely affected” and the “response of white blood cells to allogenic stimulation” value is “strongly reduced”.
